# The list shows a part of the results.
# B1: Siglec-H (Mus musculus), Q4QQK7 (protein)
# chain: MLLSRLLPLLWVLKWASGNCFILPREVIGTYPSLTLELQSVTVQEGLCVLVPCHLIEYPMNRWSDAAFGYWFHEGENTHPDSLVATNKPYQLVQKEMQSRFHFSGDCSLDIRDAQKGDNGSYFFRLEKGGKTWNFCEERISVHVTDLTHSPNISIPQTLELGRPTNVMCSVPWACERGTPPIFSWMSAALISLGPTTTLSSVLTLTPRLQDHGTNLTCQVTFPGAGVTVQKTIQLNVTYNSQNSTAHVSGRVGPGKPRPLADVVQVAMGEAAIKFLLLGICFFFLSKRSHTKRVERPATHMDQAHAVMD
# How the values were obtained:
# Assay in all cases: glycan array binding signal (z-score within array); higher = stronger binding
# Conditions in all cases: glycan notation: IUPAC condensed, linker removed
# [1] = molecular target: Gal4S6S(b1-4)GlcNAc
# Method in brief: (§1)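 The Consortium for Functional Glycomics database supplied 3228 glycan arrays, of which those lacking an available protein sequence were dropped. The binding signal, a within-array Z-score, was averaged across arrays of the same protein sequence and across linkers. Negative scores can be read as non-binding.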
# [2] = molecular target: Gal6S(b1-4)Glc
# Method in brief: as §1
# [3] = molecular target: Gal6S(b1-4)Glc6S
# Method in brief: as §1
# [4] = molecular target: Gal6S(b1-4)GlcNAc
# Method in brief: as §1
# [5] = molecular target: GalNAc(a1-3)Gal
# Method in brief: as §1
# [6] = molecular target: GalNAc(a1-3)GalNAc
# Method in brief: as §1
# [7] = molecular target: GalNAc(b1-3)Gal(a1-4)Gal(b1-4)GlcNAc
# Method in brief: as §1
# [8] = molecular target: GalNAc(b1-3)GalNAc
# Method in brief: as §1
# [9] = molecular target: GalNAc(b1-4)GlcNAc
# Method in brief: as §1
# [10] = molecular target: Glc(a1-4)Glc
# Method in brief: as §1
# [11] = molecular target: Glc(a1-6)Glc(a1-6)Glc
# Method in brief: as §1
# [12] = molecular target: Glc(b1-4)Glc
# Method in brief: as §1
# [13] = molecular target: Glc(b1-6)Glc
# Method in brief: as §1
# [14] = molecular target: GlcA(b1-3)Gal
# Method in brief: as §1
# [15] = molecular target: GlcA(b1-6)Gal
# Method in brief: as §1
# [16] = molecular target: GlcNAc(a1-3)Gal(b1-4)GlcNAc
# Method in brief: as §1
# [17] = molecular target: GlcNAc(a1-6)Gal(b1-4)GlcNAc
# Method in brief: as §1
# [18] = molecular target: GlcNAc(b1-2)Gal(b1-3)GalNAc
# Method in brief: as §1
# [19] = molecular target: GlcNAc(b1-2)Man(a1-3)[GlcNAc(b1-2)Man(a1-6)]Man(b1-4)GlcNAc(b1-4)GlcNAc
# Method in brief: as §1
# [20] = molecular target: GlcNAc(b1-3)Gal
# Method in brief: as §1
# [21] = molecular target: GlcNAc(b1-3)Gal(b1-3)GalNAc
# Method in brief: as §1
# [22] = molecular target: GlcNAc(b1-3)Gal(b1-4)Glc
# Method in brief: as §1
# [23] = molecular target: GlcNAc(b1-3)Gal(b1-4)GlcNAc
# Method in brief: as §1
# [24] = molecular target: GlcNAc(b1-3)Gal(b1-4)GlcNAc(b1-3)Gal(b1-4)GlcNAc
# Method in brief: as §1
# [25] = molecular target: GlcNAc(b1-3)GalNAc
# Method in brief: as §1
# [26] = molecular target: GlcNAc(b1-3)[GlcNAc(b1-6)]Gal(b1-4)GlcNAc
# Method in brief: as §1
# [27] = molecular target: GlcNAc(b1-3)[GlcNAc(b1-6)]GalNAc
# Method in brief: as §1
# [28] = molecular target: GlcNAc(b1-3)[GlcNAc(b1-6)]GlcNAc(b1-4)GlcNAc
# Method in brief: as §1
# [29] = molecular target: GlcNAc(b1-4)Gal(b1-4)GlcNAc
# Method in brief: as §1
# [30] = molecular target: GlcNAc(b1-4)GlcNAc(b1-4)GlcNAc
# Method in brief: as §1
binder,measurement,setting,value
B1,glycan array binding signal (z-score),[1],-0.159
same,glycan array binding signal (z-score),[2],0.181
same,glycan array binding signal (z-score),[3],-0.331
same,glycan array binding signal (z-score),[4],-0.159
same,glycan array binding signal (z-score),[5],-0.32
same,glycan array binding signal (z-score),[6],-0.342
same,glycan array binding signal (z-score),[7],1.08
same,glycan array binding signal (z-score),[8],-0.393
same,glycan array binding signal (z-score),[9],-0.266
same,glycan array binding signal (z-score),[10],0.219
same,glycan array binding signal (z-score),[11],1.6
same,glycan array binding signal (z-score),[12],-0.31
same,glycan array binding signal (z-score),[13],0.754
same,glycan array binding signal (z-score),[14],1.24
same,glycan array binding signal (z-score),[15],-0.235
same,glycan array binding signal (z-score),[16],-0.125
same,glycan array binding signal (z-score),[17],2.05
same,glycan array binding signal (z-score),[18],-0.316
same,glycan array binding signal (z-score),[19],-0.351
same,glycan array binding signal (z-score),[20],-0.315
same,glycan array binding signal (z-score),[21],-0.361
same,glycan array binding signal (z-score),[22],-0.331
same,glycan array binding signal (z-score),[23],-0.301
same,glycan array binding signal (z-score),[24],-0.28
same,glycan array binding signal (z-score),[25],-0.335
same,glycan array binding signal (z-score),[26],-0.321
same,glycan array binding signal (z-score),[27],-0.364
same,glycan array binding signal (z-score),[28],-0.32
same,glycan array binding signal (z-score),[29],-0.248
same,glycan array binding signal (z-score),[30],-0.352

# Source: the supplement of paper PMC8728848
